# Experimental data: PubChem BioAssay AID1476 (National Center for Advancing Translational Sciences (NCATS), 2009)
# Hit rate of the full screen: of about 200,000 compounds, about 4,500 (2.2%) were called active. Inconclusive results, whose numbers are uncertain, are shown with a selection of clear calls. The call rests on the fitted dose curve; in most records, active means well fitted inhibition curve with a large enough effect; inconclusive means small, poorly fitted or top-dose-only effect, or effect the other way; inactive means flat fitted curve, though single readings scatter. Potencies beside an inconclusive call are fits to weak or partial responses and may not hold up.
# Target: Cruzipain (Trypanosoma cruzi) (UniProt P25779)
# Test: qHTS Assay for Promiscuous and Specific Inhibitors of Cruzain (without detergent); further: nearly all actives have a fitted effect of over 40% in size;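 on max response, negative = inhibition: plate controls were enzyme without inhibitor for no effect and buffer without enzyme for full effect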
# Settings: purified cruzain, Z-FR-AMC fluorescence, no detergent
# In short: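 Detergent-free condition (0.00005% Triton X-100) in acetate buffer pH 5.5 with DTT. 1.5 nM enzyme and compound were pre-mixed 15 min, then 2 uM Z-FR-AMC substrate added; reaction progress from fluorescence change between first and third reads (60 s).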
# Potency means the concentration at half of the fitted maximal effect; tags describe the fitted curve by direction and shape.
# Sequence of UniProt P25779 (P25779 whole entry, looked up): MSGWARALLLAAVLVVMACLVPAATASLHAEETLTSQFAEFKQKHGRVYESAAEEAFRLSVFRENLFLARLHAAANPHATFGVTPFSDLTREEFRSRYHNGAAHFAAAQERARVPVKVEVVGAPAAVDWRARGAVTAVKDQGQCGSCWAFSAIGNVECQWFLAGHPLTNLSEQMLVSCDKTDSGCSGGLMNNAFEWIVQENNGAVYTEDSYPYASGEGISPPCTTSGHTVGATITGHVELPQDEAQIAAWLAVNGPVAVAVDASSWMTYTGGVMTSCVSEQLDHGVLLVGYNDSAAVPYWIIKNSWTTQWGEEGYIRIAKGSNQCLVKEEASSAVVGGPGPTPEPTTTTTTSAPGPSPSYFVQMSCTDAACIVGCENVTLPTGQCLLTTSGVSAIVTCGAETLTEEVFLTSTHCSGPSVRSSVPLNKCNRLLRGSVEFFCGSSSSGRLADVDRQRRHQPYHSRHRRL
Structure (SMILES),"max response, negative = inhibition",Potency
COC(=O)c1c(C)oc2ccc(N(C(=O)Oc3ccccc3)S(=O)(=O)c3ccc(C(C)(C)C)cc3)cc12,inactive: -3.86%,–
Cc1c(C)n(C)c2ccc(C(=O)NCCc3ccc(Cl)cc3)cc12,–,"inconclusive: 31.6 µM [inhibitor, partial curve, poor fit]"
CCOc1ccc2nc(NC(=O)CS(=O)(=O)c3ccc(C)cc3)sc2c1,inconclusive: -37.9% [inhibitor],–
COc1cc(NC(=O)CSc2nc3[nH]ncc3c(=O)n2-c2ccccc2C)cc(OC)c1OC,–,"inconclusive: 39.8 µM [activator, single point]"
CCCC1CCC(C2=N/C(=C\c3ccc(OC)c(OC)c3)C(=O)O2)CC1 (centres undefined),–,active: 2.51 µM
CC(CCc1ccccc1)NC(=O)C(=O)NCc1ccccc1 (centres undefined),–,"inconclusive: 31.6 µM [inhibitor, single point]"
COC(=O)[C@@]1(Cc2ccc(OC)cc2)[C@H]2c3cc(C(=O)N4CCCC4)n(CCc4ccc(O)c(O)c4)c3C[C@H]2CN1C(=O)c1ccccc1,–,"inconclusive: 39.8 µM [activator, single point]"
CCSc1ncc(Cl)c(C(=O)N(Cc2ccccc2)Cc2ccco2)n1,–,"inconclusive: 39.8 µM [inhibitor, single point]"
CCOC(=O)c1c(NC(=O)CC(C)C)sc(C(C)=O)c1C,–,"inconclusive: 39.8 µM [activator, single point]"
Cc1cc(/C=N/NC(=O)COc2cccc3cccnc23)c(C)n1-c1ccc(O)cc1,–,"inconclusive: 39.8 µM [inhibitor, single point]"
Cc1ccc(Nc2nc3ccccc3[nH]2)nc1,–,"inconclusive: 15.8 µM [inhibitor, partial curve, poor fit]"
O=C(Nc1ccc(S(=O)(=O)N2CCc3ccccc3C2)cc1)C1CCCO1 (centres undefined),–,"inconclusive: 31.6 µM [activator, single point]"
CCCCc1ccc(NS(=O)(=O)c2ccc(N3CCCCS3(=O)=O)cc2)cc1,–,"inconclusive: 39.8 µM [activator, single point]"
CCOc1ccc(C(=O)c2cn(Cc3ccccc3)c3c(F)cc(F)cc3c2=O)cc1,inactive: 1.85%,–
C=CCOC(=O)C(C#N)c1nc2ccccc2nc1N1CCN(c2ccccc2OCC)CC1 (centres undefined),–,"inconclusive: 3.98 µM [inhibitor, partial curve]"
O=C(Nc1cc(-c2nc3cc(Cl)ccc3o2)ccc1Cl)c1cc2ccccc2o1,inactive: -2.09%,–
CCOc1cc(S(=O)(=O)NCCc2ccccc2C)c(OCC)cc1-n1cnnn1,–,"inconclusive: 39.8 µM [activator, single point]"
CN(Cc1ccccc1)S(=O)(=O)c1ccc(F)c(C(=O)Nc2cc(Cl)cc(Cl)c2)c1,–,"inconclusive: 31.6 µM [inhibitor, single point]"
CC(=O)c1cccc(NC(=O)c2ccc3c(c2)c(C)c(C)n3Cc2ccc(Cl)cc2)c1,–,active: 6.31 µM
CCn1cc(C(=O)NCCCOC(C)C)c(=O)c2cc(S(=O)(=O)N(C)C3CCCCC3)ccc21,–,"inconclusive: 7.94 µM [activator, partial curve]"

Structure (SMILES),"max response, negative = inhibition",Potency
COC(=O)[C@@]1(Cc2ccc(OC)cc2)[C@@H]2[C@@H](CC(=O)[C@H]2CC(=O)C(=O)N2CCCC2)CN1C(=O)c1ccccc1,–,"inconclusive: 39.8 µM [activator, single point]"
O=C(O)c1cccc2c1NC(C(=O)O)C1CC(Sc3ccccc3[N+](=O)[O-])C(Cl)C21 (centres undefined),–,"inconclusive: 25.1 µM [activator, single point]"
CCOc1cc(N2CCOCC2)c(OCC)cc1NC(=O)CCS(=O)(=O)c1ccc(Cl)cc1,–,"inconclusive: 31.6 µM [activator, single point]"
C[C@@H](C(=O)Nc1ccc2ccccc2c1)[C@@H]1C[C@@]1(C)[C@@H](NS(=O)(=O)c1ccccc1)c1ccccc1,–,"inconclusive: 39.8 µM [inhibitor, single point]"
Cc1ccc(NC2=CC(=O)CCC2)cc1C,inactive: 5.03%,–
C=CCn1cnc2c(c1=O)c1nc3ccccc3nc1n2/N=C/c1cccc(OC)c1,–,"inconclusive: 39.8 µM [activator, single point]"
CCOC(=O)Cc1nnc(NC(=O)c2cccc(OCC)c2)s1,inactive: 6.5%,–
Cc1ccc(Cn2cc3c(n2)-c2c(oc(C(=O)Nc4ccc(F)cc4F)c2C)CC3)cc1,inactive: -4.95%,–
O=C(CSc1nc2ccccc2s1)N1c2ccccc2Sc2ccc(C(F)(F)F)cc21,–,active: 10 µM
Cc1nc(SCC(=O)Nc2ccc(Cl)cc2C(F)(F)F)[nH]c(=O)c1Cc1ccccc1,inactive: 4.7%,–
Fc1ccc(-c2ccc(-c3nn4c(-c5ccco5)nnc4s3)o2)cc1,–,"inconclusive: 39.8 µM [activator, single point]"
Clc1ccc2[nH]c(-c3ccccc3)cc2c1,–,"inconclusive: 39.8 µM [inhibitor, single point]"
COc1ccc2ccc3c(c2c1)N=C[C@]1(O3)N(C)c2ccccc2C1(C)C,–,"inconclusive: 20 µM [inhibitor, partial curve, poor fit]"
COc1ccc(S(=O)(=O)N(C)CC(=O)NCCC2=CCCCC2)cc1C,–,"inconclusive: 1.26 µM [inhibitor, full curve]"
CCCCc1ccc(NC(=O)COc2ccc(C(=O)Nc3ccccc3OCC)cc2)cc1,–,"inconclusive: 31.6 µM [inhibitor, single point]"
CCOc1cc(C(=O)N2CCN(C/C=C/c3ccccc3)CC2)cc(OCC)c1OCC,–,"inconclusive: 20 µM [activator, single point]"
CC(Oc1ccccc1)C(=O)Nc1ccc(C(=O)OCc2cc(=O)n3ccsc3n2)cc1 (centres undefined),–,"inconclusive: 39.8 µM [activator, single point]"
N#Cc1nc(/C=C/c2ccc(F)cc2)oc1N1CCCCC1,–,"inconclusive: 3.98 µM [activator, partial curve]"
CCc1ccc(C2N3CC4([N+](=O)[O-])CN2CC([N+](=O)[O-])(C3)C4(C)C)cc1 (centres undefined),–,"inconclusive: 31.6 µM [inhibitor, single point]"
